Source: PubChem BioAssay AID504339 (National Center for Advancing Translational Sciences (NCATS), 2011)
Out of some 390,000 compounds screened, about 17,000 (4.4%) were called active. The shares of active, inactive and inconclusive entries below differ from those in the screen. Calls come from the whole dose curve; as a rule, active = well fitted inhibition curve with a large enough effect; inconclusive = small, poorly fitted or top-dose-only effect; inactive = no such curve, though single readings can be large or run the other way. Where the call is inconclusive, the potency comes from a doubtful curve fit.

biological target: Lysine-specific demethylase 4A (Homo sapiens) (UniProt O75164); experiment: qHTS Assay for Inhibitors of JMJD2A-Tudor Domain; conditions: AlphaScreen JMJD2A-Tudor / H3K4me3 peptide binding; series mostly up to 114 µM; note: nearly all actives have a fitted effect of over 50% in size
Potency is the fitted concentration of half-maximal effect; tags give direction and shape of the fitted curve.

UniProt O75164, sequence (O75164 whole entry, looked up, the tested form may be a part): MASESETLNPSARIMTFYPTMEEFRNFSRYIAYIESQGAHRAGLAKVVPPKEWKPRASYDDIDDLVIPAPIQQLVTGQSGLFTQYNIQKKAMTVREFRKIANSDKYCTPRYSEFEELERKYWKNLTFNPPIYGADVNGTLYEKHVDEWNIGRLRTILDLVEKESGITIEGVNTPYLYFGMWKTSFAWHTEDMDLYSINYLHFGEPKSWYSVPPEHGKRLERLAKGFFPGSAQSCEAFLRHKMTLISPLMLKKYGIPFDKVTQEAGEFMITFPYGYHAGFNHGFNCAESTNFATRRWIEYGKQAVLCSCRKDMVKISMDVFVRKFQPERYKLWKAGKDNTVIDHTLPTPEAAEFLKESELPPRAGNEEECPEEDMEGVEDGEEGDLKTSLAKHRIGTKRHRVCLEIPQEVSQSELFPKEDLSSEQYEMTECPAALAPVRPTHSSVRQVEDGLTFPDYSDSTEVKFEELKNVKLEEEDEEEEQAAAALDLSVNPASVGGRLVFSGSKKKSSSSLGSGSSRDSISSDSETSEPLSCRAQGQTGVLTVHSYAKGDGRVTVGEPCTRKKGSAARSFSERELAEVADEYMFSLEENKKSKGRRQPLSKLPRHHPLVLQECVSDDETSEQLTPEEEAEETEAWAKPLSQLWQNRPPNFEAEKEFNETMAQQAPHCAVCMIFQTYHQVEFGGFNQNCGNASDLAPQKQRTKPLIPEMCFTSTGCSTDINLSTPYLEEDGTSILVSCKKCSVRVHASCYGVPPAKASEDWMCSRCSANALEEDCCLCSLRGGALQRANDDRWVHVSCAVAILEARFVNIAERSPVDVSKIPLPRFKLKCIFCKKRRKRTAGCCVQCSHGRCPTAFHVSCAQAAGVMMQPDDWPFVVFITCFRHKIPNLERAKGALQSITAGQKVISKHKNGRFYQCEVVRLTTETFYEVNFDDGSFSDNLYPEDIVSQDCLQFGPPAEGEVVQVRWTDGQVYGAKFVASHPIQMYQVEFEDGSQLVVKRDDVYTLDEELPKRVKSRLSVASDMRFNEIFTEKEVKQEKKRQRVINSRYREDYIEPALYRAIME

| Compound | Potency |
| --- | --- |
| CCc1nc2ccccc2c(=O)n1NC(=O)c1c(O)c2ccccc2[nH]c1=O | active: 79.4 µM |
| Cc1ccc(NC(=O)C2CCCN(S(=O)(=O)c3c(C)nn(C)c3C)C2)c(C)c1 (stereo not drawn) | inactive |
| O=C(Nc1cccc(S(=O)(=O)N2CCCCCC2)c1)c1ccc(Cl)nc1 | inconclusive: 50.1 µM [inhibitor, partial curve] |
| CC(NC(=O)C1=CC=CN2CCS(=O)(=O)N=C12)c1ccc(Cl)cc1Cl (stereo not drawn) | inactive |
| Cc1ccc(-c2nc3c(c(=O)[nH]c(=O)n3Cc3ccccc3)n2C)o1 | inconclusive: 20 µM [inhibitor, full curve] |
| O=C(O)c1ccc(S(=O)(=O)NCc2cccnc2)cc1 | inactive |
| O=C(COC(=O)[C@H](Cc1ccccc1)NC(=O)c1cccs1)NC1CCCCC1 | inconclusive: 70.8 µM [inhibitor, single point] |
| CCOC(=O)C1CN(S(=O)(=O)c2cccc(C(F)(F)F)c2)c2cc(CC(=O)OC)ccc2O1 (stereo not drawn) | inactive |
| NCCCC[C@@H]1NC(=O)c2cc([N+](=O)[O-])cc(I)c2SC[C@@H](C(N)=O)NC(=O)[C@H](Cc2ccc(O)cc2)NC1=O | inconclusive: 35.5 µM [inhibitor, partial curve, poor fit] |
| CCN(CC)CCN(Cc1cc2cc3c(cc2[nH]c1=O)OCCO3)C(=S)NCC1CCCO1 (stereo not drawn) | inactive |
| CCCCC(CC)C(=O)Nc1ccc(Nc2ccccc2)cc1 (stereo not drawn) | inconclusive: 35.5 µM [inhibitor, partial curve] |
| Cc1nc2ccc(N)cc2s1 | inconclusive: 89.1 µM [inhibitor, partial curve] |
| Oc1ccc(CNc2ccccc2O)cc1 | inconclusive: 56.2 µM [inhibitor, partial curve, poor fit] |
| O=C(Nc1nnc(C2=COCCO2)o1)c1ccc(S(=O)(=O)N2CCCCC2)cc1 | active: 79.4 µM |
| CCCOc1ccc(C(=O)Nc2sc3c(c2C(=O)OCC)CCCCC3)cc1 | inactive |
| O=C(O)CCCCC1CCSS1 (stereo not drawn) | inactive |
| O=C(c1cccc(Cl)c1)N1CCN(Cc2c[nH]c3ccccc23)CC1 | active: 3.55 µM |
| O=C(OCc1ccccc1)N1CCC2CC1c1cc(N3CCOCC3)ccc12 (stereo not drawn) | inconclusive: 44.7 µM [inhibitor, partial curve] |
| Cc1ccccc1CS(=O)(=O)c1ncc(Cl)c(C(=O)Nc2nnc(C(C)C)s2)n1 | inconclusive: 44.7 µM [inhibitor, partial curve] |
| CC1CC(C)CN(c2ccc(-n3cnnn3)cc2[N+](=O)[O-])C1 (stereo not drawn) | inconclusive: 50.1 µM [inhibitor, partial curve] |
| COc1ccc(-c2c(-c3ccc4c(c3)OCO4)c3ccccc3n2C)cc1 | inconclusive: 20 µM [inhibitor, full curve] |
| CCOC(=O)COc1ccc(/C=C2/SC(=Nc3ccccc3)N(Cc3cccnc3)C2=O)cc1OC | inactive |
| CC(NC(=O)c1ccco1)C(c1cccs1)N1CCN(c2ccccc2)CC1 (stereo not drawn) | inconclusive: 50.1 µM [inhibitor, partial curve] |

| Compound | Potency |
| --- | --- |
| COc1cc2cc(C)c(SCC(=O)N3CCN(C(=O)c4ccco4)CC3)nc2cc1OC | inconclusive: 89.1 µM [inhibitor, single point] |
| O=c1c2c3c(sc2n(CCN2CCCC2)c(=O)n1Cc1ccco1)CCCCC3 | active: 79.4 µM |
| COc1ccccc1OCC(=O)O | inconclusive: 89.1 µM [inhibitor, single point] |
| CCCn1[nH]cc(SC)c(=O)c1=O | active: 25.1 µM |
| CCOc1cc(C2C(C#N)=C(N)Oc3n[nH]c(CC)c32)ccc1OCCN1CCOCC1 (stereo not drawn) | inconclusive: 79.4 µM [inhibitor, single point] |
| O=C(NS(=O)(=O)Nc1ccccc1)C1=C(N2CCCC2)COC1=O | active: 100 µM |
| Clc1ccc(CN(CCCNc2ncnc(NCCCc3cnc[nH]3)n2)c2ccc(Br)cn2)cc1Cl | active: 35.5 µM |
| CCCc1cc(=O)oc2c3c(cc(OCC(=O)NCCCn4ccnc4)c12)OC(C)(C)CC3 | inconclusive: 50.1 µM [inhibitor, partial curve] |
| COc1cccc(-c2nc(N3CCN(C)CC3)c3ccccc3n2)c1O | inconclusive: 15.8 µM [inhibitor, partial curve] |
| CCS(=O)(=O)N1Cc2ccccc2CC1C(=O)N1CCN(c2cccc(C)c2C)CC1 (stereo not drawn) | inconclusive: 89.1 µM [inhibitor, partial curve] |
| COc1ccc(C(Nc2ccccn2)c2c(NC(=O)c3ccco3)sc(C)c2C)cc1 (stereo not drawn) | inconclusive: 35.5 µM [inhibitor, full curve] |
| CC(=O)C1=C(O)C(=O)N(c2ccc(Br)cn2)C1c1ccc(Br)cc1 (stereo not drawn) | active: 22.4 µM |
| Cn1c(-c2ccc3nc(N)sc3c2)nc2cc(N)ccc21 | inconclusive: 12.6 µM [inhibitor, partial curve] |
| NC1=NC(=O)C(CC(=O)c2ccc(Cl)cc2)S1 (stereo not drawn) | inactive |
| COc1nccnc1NS(=O)(=O)c1ccc(N=Cc2c(C)[nH]n(-c3ccc(C)c(C)c3)c2=O)cc1 | inconclusive: 79.4 µM [inhibitor, partial curve] |
| CCOC(=O)c1cc(OC(=O)c2cccc(F)c2)n(-c2ccccc2)n1 | inconclusive: 89.1 µM [inhibitor, single point] |
| COc1ccc(-c2ccccc2)cc1NCc1ccccc1C | inconclusive: 44.7 µM [inhibitor, single point] |
| O=C(NCc1cccnc1)C1CCN(Cc2cc3ccccc3n2Cc2ccccc2)CC1 | inconclusive: 50.1 µM [inhibitor, partial curve] |
| CCCC1=[N+](CC)CCn2c(C)ccc21 | inconclusive: 25.1 µM [inhibitor, full curve] |
| CCOc1ccc(N(C(=O)c2ccc(OC)cc2)S(=O)(=O)c2ccc3c(c2)n(C)c(=O)n3C)cc1 | inconclusive: 12.6 µM [inhibitor, full curve, poor fit] |
| CCN(CC)Cc1cc(C(C)(C)C)cc(N2CCOCC2)c1O | inconclusive: 14.1 µM [inhibitor, partial curve, poor fit] |
| COc1cccc2cc(-c3n[nH]c(=S)n3C)oc12 | active: 7.94 µM |
| Cc1ccc(-n2c(SCc3ccccc3C)nc3[nH]ncc3c2=O)cc1C | inconclusive: 39.8 µM [inhibitor, partial curve] |

| Compound | Potency |
| --- | --- |
| N#C/C(=C\c1ccc(-c2ccc(Cl)c(C(=O)O)c2)o1)c1nc2ccccc2[nH]1 | inconclusive: 63.1 µM [inhibitor, partial curve, poor fit] |
| COc1ccc(N2CCN(C(=O)CCNC(=O)c3ccc(C(C)(C)C)cc3)CC2)cc1 | inconclusive: 56.2 µM [inhibitor, partial curve] |
| Cc1[nH]n(-c2ccccc2)c(=O)c1/C=N/N(C)c1ccccc1 | inconclusive: 56.2 µM [inhibitor, partial curve] |
| O=C(NCc1ccccc1Cl)C(=O)NCC(c1cccs1)S(=O)(=O)c1ccccc1 (stereo not drawn) | inactive |
| COc1cccc(NC(=O)c2cn(C)c(=O)c3cc(OC)c(OC)cc23)c1 | inconclusive: 8.91 µM [inhibitor, single point] |
| CC1CCN(CC(=O)Nc2ccc(Br)cc2[N+](=O)[O-])CC1 | inconclusive: 11.2 µM [inhibitor, full curve] |
| COc1ccc(Oc2ccc(/C=C/C(=O)c3ccc(O)cc3)cc2[N+](=O)[O-])cc1 | inconclusive: 14.1 µM [inhibitor, full curve] |
| COc1ccc2c(c1)Cc1sc(NC(=O)c3ccc(Cl)cc3)nc1-2 | inactive |
| CCOC(=O)c1c(NC(=S)Nc2ccc(Cl)cc2)sc2c1CCN(C)C2 | inconclusive: 79.4 µM [inhibitor, partial curve] |
| CN(CC(=O)Nc1ccc(F)cc1)C(=O)c1cc(-c2ccco2)nc2ccccc12 | inconclusive: 35.5 µM [inhibitor, partial curve] |
| Cc1cc(O)c2c(c1)C(=O)[C@@]13Oc4c5c(c(O)c6c(O)cc(C)cc46)C(=O)C[C@H](O)[C@H]5[C@@H]1[C@@H](O)CC(=O)C3=C2O | active: 15.8 µM |
| O=C1S/C(=C\c2ccc(N3CCOCC3)o2)C(=O)N1Cc1c(F)cccc1Cl | inconclusive: 50.1 µM [inhibitor, partial curve] |
| Cc1cc(C)c2nc(NNC(=O)c3ccc(S(=O)(=O)N4CCc5ccccc5C4)cc3)sc2c1 | inconclusive: 11.2 µM [inhibitor, full curve] |
| Cc1ccc(S(=O)(=O)CCC(=O)Oc2ccc3c(C)cc(=O)oc3c2)cc1 | inconclusive: 89.1 µM [inhibitor, partial curve] |
| COc1ccc(C#Cc2c[nH]c(=O)c3cncnc23)cc1OC | inactive |
| OC(CNc1ccccc1)COc1ccc(OCC(O)CNc2ccccc2)cc1 (stereo not drawn) | active: 50.1 µM |
| Cc1nnc(N2CCN(c3ccccc3)CC2)[nH]c1=O | inconclusive: 3.16 µM [inhibitor, single point] |
| Oc1cc2c(c(Cl)c1O)CCNCC2c1ccccc1 (stereo not drawn) | active: 44.7 µM |
| CCCCCCn1c(-c2cccs2)n[nH]c1=S | active: 28.2 µM |
| CN(C)S(=O)(=O)c1ccc(NC(=O)Cc2ccc(S(=O)(=O)N3CCOCC3)s2)cc1 | inactive |
| O=C1C=CC(=Nc2ccc3c(c2)Cc2cc(F)ccc2-3)O1 | inconclusive: 63.1 µM [inhibitor, partial curve, poor fit] |
| CCOc1ccc(NC(=O)CSc2nnc(Cc3cccn3C)n2-c2ccc(F)cc2)cc1 | inconclusive: 79.4 µM [inhibitor, partial curve] |
